According to PubChem BioAssay AID651820 (National Center for Advancing Translational Sciences (NCATS), 2012):
Screen size: about 340,000 compounds; about 12,000 (3.5%) were called active. Inconclusive results, whose numbers are uncertain, are shown with a selection of clear calls. The call rests on the fitted dose curve; in most records, active means well fitted inhibition curve with a large enough effect; inconclusive means small, poorly fitted or top-dose-only effect, or another doubt; inactive means no such curve, though single readings can be large or run the other way. No potency is given beside an inconclusive call; the fits are too rough. Some compounds were tested as several samples or in several runs, with calls that do not always agree.

experiment: qHTS Assay for Inhibitors of Hepatitis C Virus (HCV); details: Huh7.5.1 HCVcc-Cre (HCVcc is cell-culture hepatitis C virus) infection, luciferase reporter, 44 h; series mostly up to 41.8 µM
Outline: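 Compounds are dispensed onto cells plated 4 h earlier at 1,000 per well, with HCVcc-Cre virus (about 0.5 moi) added next. Following 44 h of culture, luminescent signal is measured for 15 sec after 15 min with substrate at room temperature.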
Potency means the concentration at half of the fitted maximal effect; tags describe the fitted curve by direction and shape.

Compound	Potency
Cc1cc(C(=O)CSc2nnc(N)s2)c(C)n1CCc1ccc(Cl)cc1	inconclusive [inhibitor, partial curve, poor fit]
Cc1ccc(-c2cc(C(=O)OCC(=O)Nc3ncc(C(F)(F)F)cc3Cl)c3ccccc3n2)cc1	inconclusive [inhibitor, partial curve]
Cn1cc(CNCCN2CCCCC2=O)c(-c2cccc(Cl)c2)n1	inactive
COc1ccccc1CN1CCC(CNS(=O)(=O)c2cc(-c3onc(C)c3C)ccc2OC)CC1	active: 10 µM
CN(C)CCCNC(=O)C[C@H]1C[C@H](C(=O)N2CCCCC2)[C@@]2(C)c3[nH]c4cc(-c5ccco5)ccc4c3CCN2C1=O	inconclusive [inhibitor, single point]
C=CCN(c1ccccc1Cl)S(=O)(=O)c1cccc(C(=O)OCC(=O)N(C)C2CCS(=O)(=O)C2)c1 (centres undefined)	active: 3.55 µM
O=C(/C=C/c1ccc(Cl)cc1Cl)N(Cc1ccccc1)C1CCS(=O)(=O)C1 (centres undefined)	inconclusive [inhibitor, single point]
Cc1cc(C(=O)NNC(=O)c2cccc(S(=O)(=O)N3CCOCC3)c2)c2ccccc2n1	inconclusive [inhibitor, single point]
COc1cccc(-c2cc3nc(-c4ccccc4)cc(N4CCC5(CC4)OCCO5)n3n2)c1	inconclusive [inhibitor, partial curve]
Cc1[nH]c2c(C)cccc2c1CCNC(=O)c1ccc2c(c1[N+](=O)[O-])C(=O)c1ccccc1C2=O	inconclusive [inhibitor, single point]
CC(C)(C)OC(=O)N1CCCC(C(=O)Nc2ccc(C(=O)N3CCCCC3)cc2)C1 (centres undefined)	inconclusive [inhibitor, single point]
O=C(c1ccoc1)N1CCC2(CC1)Oc1ccc(F)cc1C(=O)C21CC(c2ccc(Cl)cc2)=NO1 (centres undefined)	inconclusive [inhibitor, single point]
O=C(COc1ccc([N+](=O)[O-])cc1)Nc1ccncc1	inconclusive [inhibitor, single point]
Cc1occc1C(=O)N/N=C/c1ccc(-c2ccccc2)cc1	inactive
O=C(/C=C/Nc1ccc(Br)cc1F)c1ccco1	inactive
CCCCn1ccc(O)c(Cc2ccc(F)cc2)c1=O	inactive
Cc1cc(Cl)ccc1NC(=S)Nc1ccccn1	inactive
CC(c1ccccc1)N1CCC(CNC(=S)Nc2cccc(Cl)c2)C1 (centres undefined)	inconclusive [inhibitor, partial curve]
O=C(O)c1cccc(Cn2c(Cl)c(/C=N/NC(=O)c3cccc(O)c3)sc2=O)c1	inactive
CCO[C@H]1OC(C(=O)O)=C[C@@H](c2ccc3c(c2)OCO3)[C@@H]1CCCO	active: 2.51 µM
Cc1nn(Cc2ccc(C(=O)NN)o2)c(C)c1Cl	active: 12.6 µM
NC(c1ccccc1)c1cccnc1 (centres undefined)	inactive
Cc1ccc(CN2[C@@H](CC(C)C)COCCS2(=O)=O)cc1	inactive

Compound	Potency
CN1CCc2c(C#N)c(Cl)nc(Cl)c2C1	inconclusive [inhibitor, single point]
O=C1NC2(C=Cc3c(ccc4ccccc34)O2)Oc2ccccc21 (centres undefined)	inconclusive [inhibitor, single point]
CCn1c2ccccc2c2cc(NC(=O)c3cc(OC)cc(OC)c3)ccc21	inconclusive [inhibitor, full curve]
Cc1ccccc1C(=O)NNC(=O)C1CCN(c2ncccn2)CC1	inactive
O=C(CSc1nc(=O)n(CCN2CCOCC2)c2c1CCC2)Nc1ccc(OC(F)(F)F)cc1	inconclusive [inhibitor, single point]
CCN1CCN(C2=C(NS(=O)(=O)c3ccc(Br)cc3)C(=O)c3ccccc3C2=O)CC1	inconclusive [inhibitor, single point]
CCCOc1cc(N(CC)CC)ccc1/C=C(/C#N)c1nc2ccc(C)cc2[nH]1	inconclusive [inhibitor, full curve]
CC1CC(C)CN(CC(O)COCCOc2ccc(Br)cc2)C1 (centres undefined)	inconclusive [inhibitor, partial curve]
O=C(Nc1cccc(F)c1)/C(=C\c1cccnc1)NC(=O)c1ccco1	inactive
Cc1cccc(CS(=O)(=O)Cc2ccc(C(=O)NCc3ccccc3)o2)c1	inconclusive [inhibitor, single point]
COc1ccc2[nH]c(C)c(CCNCc3cc(OC)c4c(c3)OCO4)c2c1	inconclusive [inhibitor, partial curve]
CCC(=O)c1ccc(OCC(=O)N2CCN(CC(=O)Nc3ccc(C)cc3)CC2)cc1	inconclusive [inhibitor, partial curve]
COc1ccccc1N1CCN(C(=O)c2sc3nc(-c4ccccc4)cn3c2C)CC1	active: 11.2 µM
Cc1cc(N2CCOCC2)nc2ccc(NC(=S)N3CCN(Cc4ccccc4)CC3)cc12	inconclusive [inhibitor, partial curve]
CC(=O)NS(=O)(=O)c1ccc(N=c2ssc3c2-c2cc(C)ccc2NC3(C)C)cc1	inconclusive [inhibitor, single point]
O=c1c2ccccc2nc(CSc2nnnn2-c2ccccc2)n1-c1ccccc1Cl	inconclusive [inhibitor, partial curve]
Cc1cc(NC(=O)c2cc(C3CC3)on2)n(-c2ccccc2)n1	inactive
CN1CCN(CCCNC(=O)c2ccc(Cn3c(=S)[nH]c4ccc(Br)cc4c3=O)cc2)CC1	active: 7.94 µM
O=C(/C=C/c1cccs1)c1ccc(NC(=O)c2cccc(Br)c2)cc1	active: 6.31 µM
COc1ccccc1-c1cccc([C@@H]2C[C@H]3[C@H](CON3C)CN2Cc2ccccc2)c1	active: 8.91 µM
Clc1ccc(-c2nnc3sc(-c4ccc(Br)o4)nn23)cc1	inconclusive [inhibitor, single point]
COc1cccc(OCc2cc(C(=O)N3CCN(c4ccccc4O)CC3)no2)c1	inconclusive [inhibitor, single point]
COc1ccc(S(=O)(=O)Nc2cccc(S(=O)(=O)N3CCCCCC3)c2)cc1	inactive

Compound	Potency
Cc1ccc2nc(NC(=O)C3CC(=O)N(Cc4ccco4)C3)sc2c1 (centres undefined)	inactive
COC(C(=O)N/N=C(\C)c1ccc(C)cc1)c1ccccc1 (centres undefined)	inactive
Cc1cc(C(=O)NCc2cccnc2)cs1	inconclusive [inhibitor, single point]
COc1ccc(NC(=O)Nc2ccc3c(c2)N(C)C(=O)CS3)cc1Cl	inconclusive [inhibitor, partial curve]
Cc1ccc2nc(NC(=O)CCNS(=O)(=O)c3cccs3)sc2c1	inactive
CCN1CCN(c2cc(C)c3cc(NC(=S)N(C)Cc4ccccc4)ccc3n2)CC1	inconclusive [inhibitor, partial curve]
CC(=O)c1cccc(NC(=O)C(C)OC(=O)c2ccc(-n3cnnn3)cc2)c1 (centres undefined)	inconclusive [inhibitor, full curve, poor fit]
COc1ccc(CCC(=O)NCC23CC4CC(CC(C4)C2)C3)cc1	inactive
COc1ccc(CCNC(=O)c2ccccc2NC(=O)C2=C(C)OCCS2)c(OC)c1	active: 10 µM
CC1=C(C(=O)Nc2cccnc2)C(c2cccnc2)n2nc(-c3cccs3)nc2N1 (centres undefined)	inactive
Cc1cc(C(=O)OCC(=O)N2c3ccccc3NC(=O)C2(C)C)c(C)n1-c1ccccc1	inconclusive [inhibitor, partial curve]
CC(C)CCNC(=O)CC1C(=O)N(Cc2ccccc2)C(C)c2nc3ccccc3n21 (centres undefined)	inconclusive [inhibitor, single point]
CC(Sc1nnnn1-c1ccccc1)C(=O)Nc1ccc(Cl)cn1 (centres undefined)	inconclusive [inhibitor, single point]
COc1ccc(S(=O)(=O)N(Cc2ccccc2)c2ccccc2C(=O)N2CCOCC2)cc1	inconclusive [inhibitor, single point]
COC(=O)c1cccnc1-n1c(=O)c2cccnc2n(CC(=O)Nc2ccc(Br)cc2)c1=O	inconclusive [inhibitor, partial curve]
COc1ccccc1NC(=O)CN1CCCCCC1	inactive
CC(O)(P(=O)(O)O)P(=O)(O)O	inconclusive [inhibitor, single point]
CCOC(=O)Cc1cnc(NC(=O)CSc2nc(C)c(CC)c(=O)[nH]2)s1	inconclusive [inhibitor, single point]
COCc1c(C(=O)N2CCN(S(=O)(=O)c3ccccc3Cl)CC2)oc2ccccc12	inconclusive [inhibitor, partial curve]
CCNC(=S)N1CCCC(c2nc3ccc(C)cc3[nH]2)C1 (centres undefined)	inconclusive [inhibitor, partial curve]
COc1ccc(C(=O)Nc2nc(-c3ccc([N+](=O)[O-])cc3)c(-c3ccc(OC)cc3)s2)cc1	inconclusive [inhibitor, single point]
Cc1onc(-c2ccccc2)c1C(=O)Nc1ncc([N+](=O)[O-])s1	inconclusive [inhibitor, single point]
CCOc1cc(CNc2ccc(N3CCCCC3)cc2)cc(Br)c1OCC(=O)NC(C)(C)C	inconclusive [inhibitor, partial curve, poor fit]
